# Experimental data: the supplement of paper PMC12217912
# This is one part of the list. The full chains were built here from the parent and the listed change. Values near 0.05 are background.
# B1: TEV protease; numbered along this chain (parent)
# chain: MGESLFKGPRDYNPISSSICHLTNESDGHTTSLYGIGFGPFIITNKHLFRRNNGTLVVQSLHGVFKVKDTTTLQQHLVDGRDMIIIRMPKDFPPFPQKLKFREPQREERICLVTTNFQTKSMSSMVSDTSCTFPSGDGIFWKHWIQTKDGQCGSPLVSTRDGFIVGIHSASNFTNTNNYFTSVPKNFMELLTNQEAQQWVSGWRLNADSVLWGGHKVFMVKPEEPFQPVKEATQL
# Variants of: B1
# Assay: raw area under fraction-flipped curve 0-4 h after induction (AUC4h, not background-subtracted), DNA-recorder readout of cleavage of the substrate (dimensionless); higher = more cleavage of the substrate by the protease variant
# Details: temperature: 34 °C; time window: 0-4 h after rhamnose induction
# Description: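 In vivo DNA recorder in E. coli TOP10(DE3) ΔrhaA at 34 °C. Each TEVp single-site mutant (parent TEVp 0) is paired with a single-site variant of the 7-mer TEVs (canonical ENLYFQ|S). The substrate sits between flexible linkers in a Bxb1-sfGFP-TEVs-SsrA fusion, so cleavage stabilises Bxb1 and speeds flipping of a recombination array, read by NGS. The value is the raw area under the fraction-flipped curve over 0-4 h after rhamnose induction (AUC4h), with ≥20 reads per time point. It is not background-subtracted; inactive controls average about 0.047.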
# 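Further: Bxb1 expression induced with 0.2% (w/v) L-rhamnose at OD600 near 0.5, cultures sampled hourly, flipped fraction per protease–substrate barcode pair counted by paired-end Illumina sequencing.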
Variant,area with substrate ENLYFAS,area with substrate ENLYFCS,area with substrate ENLYFES,area with substrate ENLYFFS,area with substrate ENLYFIS,area with substrate ENLYFKS,area with substrate ENLYFMS,area with substrate ENLYFNS,area with substrate ENLYFPS,area with substrate ENLYFSS,area with substrate ENLYFTS,area with substrate ENLYFWS,area with substrate ENLYFYS,area with substrate ENLYFGS,area with substrate ENLYFLS,area with substrate ENLYFRS,area with substrate ENLYFVS,area with substrate ENLYFHS,area with substrate ENLYFDS
MGESLFKGPRDYNPISSSICHLTNESDGHTTSLYGIGFGPFIITNKHLFRRNNGTLVVQSLHGVFKVKDTTTLQQHLVDGRDMIIIRMPKDFPPFPQKLKFREPQREERICLVTTNFQTKSMSSMVSDTSCTFPSGDGIFWKHWIQTKDGQCGSPLVSTRDGFIVGIESASNFTNTNNYFTSVPKNFMELLTNQEAQQWVSGWRLNADSVLWGGHKVFMVKPEEPFQPVKEATQL [H168E],0.0673,0.0691,0.0745,0.0639,0.0528,0.069,0.0459,0.0569,0.0514,0.0617,0.0808,0.0536,0.0513,,,,,,
MGESLFKGPRDYNPISSSICHLTNESDGHTTSLYGIGFGPFIITNKHLFRRNNGTLVVQSLHGVFKVKDTTTLQQHLVDGRDMIIIRMPKDFPPFPQKLKFREPQREERICLVTTNFQTKSMSSMVSDTSCTFPSGDGIFWKHWIQTKDGQCGSPLVSTRDGFIVGIFSASNFTNTNNYFTSVPKNFMELLTNQEAQQWVSGWRLNADSVLWGGHKVFMVKPEEPFQPVKEATQL [H168F],0.047,0.0637,0.0603,0.0749,0.0542,0.0576,0.0381,0.0564,0.0494,,0.0782,0.0691,0.0544,0.0439,0.065,0.0513,0.0705,,
MGESLFKGPRDYNPISSSICHLTNESDGHTTSLYGIGFGPFIITNKHLFRRNNGTLVVQSLHGVFKVKDTTTLQQHLVDGRDMIIIRMPKDFPPFPQKLKFREPQREERICLVTTNFQTKSMSSMVSDTSCTFPSGDGIFWKHWIQTKDGQCGSPLVSTRDGFIVGIGSASNFTNTNNYFTSVPKNFMELLTNQEAQQWVSGWRLNADSVLWGGHKVFMVKPEEPFQPVKEATQL [H168G],0.0646,0.062,0.0507,0.0568,0.0543,0.0592,,0.0641,0.0648,,0.0574,0.0527,0.0558,,0.0652,0.0502,0.0459,0.0735,
MGESLFKGPRDYNPISSSICHLTNESDGHTTSLYGIGFGPFIITNKHLFRRNNGTLVVQSLHGVFKVKDTTTLQQHLVDGRDMIIIRMPKDFPPFPQKLKFREPQREERICLVTTNFQTKSMSSMVSDTSCTFPSGDGIFWKHWIQTKDGQCGSPLVSTRDGFIVGIISASNFTNTNNYFTSVPKNFMELLTNQEAQQWVSGWRLNADSVLWGGHKVFMVKPEEPFQPVKEATQL [H168I],0.055,0.0547,0.0593,0.0703,0.0499,0.0643,0.0595,0.0498,0.058,0.0478,0.0624,0.0759,,0.0788,0.0563,0.0549,0.0545,0.0648,0.0673
MGESLFKGPRDYNPISSSICHLTNESDGHTTSLYGIGFGPFIITNKHLFRRNNGTLVVQSLHGVFKVKDTTTLQQHLVDGRDMIIIRMPKDFPPFPQKLKFREPQREERICLVTTNFQTKSMSSMVSDTSCTFPSGDGIFWKHWIQTKDGQCGSPLVSTRDGFIVGIKSASNFTNTNNYFTSVPKNFMELLTNQEAQQWVSGWRLNADSVLWGGHKVFMVKPEEPFQPVKEATQL [H168K],0.0511,0.0574,0.0606,0.0628,0.0576,,,,0.0573,,0.0888,0.0621,0.0594,0.0692,,0.0519,0.0822,0.0535,0.0672
MGESLFKGPRDYNPISSSICHLTNESDGHTTSLYGIGFGPFIITNKHLFRRNNGTLVVQSLHGVFKVKDTTTLQQHLVDGRDMIIIRMPKDFPPFPQKLKFREPQREERICLVTTNFQTKSMSSMVSDTSCTFPSGDGIFWKHWIQTKDGQCGSPLVSTRDGFIVGILSASNFTNTNNYFTSVPKNFMELLTNQEAQQWVSGWRLNADSVLWGGHKVFMVKPEEPFQPVKEATQL [H168L],0.0935,0.0446,0.056,0.0654,0.0601,,0.0507,,0.0687,,0.0458,,0.0545,0.0599,,,0.0455,0.0589,0.0657
MGESLFKGPRDYNPISSSICHLTNESDGHTTSLYGIGFGPFIITNKHLFRRNNGTLVVQSLHGVFKVKDTTTLQQHLVDGRDMIIIRMPKDFPPFPQKLKFREPQREERICLVTTNFQTKSMSSMVSDTSCTFPSGDGIFWKHWIQTKDGQCGSPLVSTRDGFIVGIQSASNFTNTNNYFTSVPKNFMELLTNQEAQQWVSGWRLNADSVLWGGHKVFMVKPEEPFQPVKEATQL [H168Q],0.0782,0.039,0.0545,0.0688,0.0538,0.0767,0.0541,0.0614,0.0631,0.0535,0.0592,0.0397,,,0.0554,0.0553,0.0624,0.0549,
MGESLFKGPRDYNPISSSICHLTNESDGHTTSLYGIGFGPFIITNKHLFRRNNGTLVVQSLHGVFKVKDTTTLQQHLVDGRDMIIIRMPKDFPPFPQKLKFREPQREERICLVTTNFQTKSMSSMVSDTSCTFPSGDGIFWKHWIQTKDGQCGSPLVSTRDGFIVGIYSASNFTNTNNYFTSVPKNFMELLTNQEAQQWVSGWRLNADSVLWGGHKVFMVKPEEPFQPVKEATQL [H168Y],0.068,0.0472,,0.0605,0.0585,0.0648,0.0557,0.0619,0.0536,0.0585,0.0612,,0.0605,0.0577,0.0416,0.0504,,,0.0633
MGESLFKGPRDYNPISSSICHLTNESDGHTTSLYGIGFGPFIITNKHLFRRNNGTLVVQSLHGVFKVKDTTTLQQHLVDGRDMIIIRMPKDFPPFPQKLKFREPQREERICLVTTNFQTKSMSSMVSDTSCTFPSGDGIFWKHWIQTKDGQCGSPLVSTRDGFIVGIHSASNFDNTNNYFTSVPKNFMELLTNQEAQQWVSGWRLNADSVLWGGHKVFMVKPEEPFQPVKEATQL [T174D],0.0946,0.0693,0.0651,0.0661,0.0567,0.0578,0.08,,0.0635,,0.0772,0.0701,0.0614,0.0642,0.0571,0.0683,0.0319,0.0575,
